From PubChem BioAssay AID1508624 (National Center for Advancing Translational Sciences (NCATS), 2021)
About 120 (0.25%) of roughly 48,000 compounds were called active. Not shown: some 4% with an inconclusive outcome. Calls come from the whole dose curve; as a rule, active = well fitted activation curve with a large enough effect; inconclusive = small, poorly fitted or top-dose-only effect, or another doubt; inactive = no such curve, though single readings can be large or run the other way. Some of the results follow.

Assay: Primary qHTS for Identification of Small Molecule Activators of Huntingtin-Antisense Promoter Activity; note: nearly all actives have a fitted effect of over 55% in size
Conditions: HEK293 HTT-AS promoter firefly luciferase reporter (activity 0% = vehicle and -100% = no light), 24 h; series mostly up to 57.5 µM; activity change, positive = activation: at the top concentration
In short: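 HEK293 cells carrying firefly luciferase reporters were seeded at 2,500 per well in Opti-MEM and cultured for 24 h. They were then treated with compounds at up to 57.5 uM final for 24 h at 37 degrees C before Dual-Glo luminescence readout.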

SMILES | activity change, positive = activation
Cc1cccc(NC(=O)Cn2c(=O)n(CCC(C)C)c(=O)c3cccnc32)c1 | inactive: -6.99%
Cc1ccc(NC(=O)c2cnn(-c3ccc(C)c(C)c3)c2C2CCN(C(=O)OC(C)(C)C)CC2)c(C)c1 | inactive: -23.6%
Cc1ccc(-n2nc(C(=O)N3CCN(c4cccc(C(F)(F)F)c4)CC3)c(=O)n(C)c2=O)cc1 | inactive: -32.4%
Cc1ccc(CNc2ccc(-c3nc(C(C)C)no3)cc2[N+](=O)[O-])cc1 | inactive: -14.4%
COc1cc(NC(=O)CN2C(=O)C(c3ccc(C)cc3)=NC23CCCCC3)cc(OC)c1 | inactive: -20.4%
Cc1ccc(-n2c(=O)c3c(c4cc(C)ccc4n3C)n(CC(=O)Nc3c(C)cccc3C)c2=O)cc1 | inactive: -14.7%
O=C(CCSCCc1ccccn1)Nc1cc(F)ccc1F | inactive: -6.56%
Cc1cccc(N2CCN(C(=O)c3cc4c(=O)oc5ccccc5c4s3)CC2C)c1 (stereo unspecified) | inactive: -27.7%
COc1ccc(CNS(=O)(=O)c2cc3c(cc2C)n(C)c(=O)c(=O)n3C)cc1 | inactive: -14.3%
COc1cccc(NC(=O)c2nn(-c3ccc(C)cc3)c(=O)n(C)c2=O)c1 | inactive: -2.1%
CC(C)CN(CC(C)C)C(=O)C1CCCN(S(=O)(=O)c2ccc3c(c2)oc(=O)n3C)C1 (stereo unspecified) | inactive: -1.45%
COc1ccc(CCC(C)=O)cc1 | inactive: -5.55%
Cc1ccc(NS(=O)(=O)c2ccc3c(c2)NC(=O)C(C)C(=O)N3)cc1F (stereo unspecified) | inactive: -28.6%
Cc1ccc(NC(=O)CSc2cc(=O)n(C)c3ccc(Cl)cc23)c(Br)c1 | inactive: -3.93%
CCc1ccc(CNC(=O)c2ccc3nc(SCc4ccc(F)cc4)n(C)c3c2)cc1 | inactive: -30.6%
CCOc1ccc(C(=O)Nc2cc(NC(=O)c3ccco3)ccc2OC)cc1Br | inactive: -11.6%
Cc1ccc(CCNC(=O)CCN2N=C(c3ccc(C)cc3)CCC2=O)cc1 | inactive: -19.2%
COc1ccc(CCC(=O)NCc2ccc3c(c2)CCN3C(=O)c2ccc(F)cc2)cc1 | inactive: 4.45%
Cc1ccsc1CCN1C(=O)N(c2ccccc2)C(=O)C1CC(=O)Nc1ccc(F)cc1 (stereo unspecified) | inactive: -25.2%
COc1ccc(-c2nc3cc(NC(=O)Cc4ccc(Cl)cc4)ccc3o2)cc1OC | inactive: -35.9%
Cc1ccc(Cl)cc1Nc1nc2ccccc2c2nncn12 | inactive: -9.23%
Cc1cccc(C)c1NC(=O)c1ccc2c(c1)N(Cc1cccc(Cl)c1)C(=O)c1ccccc1S2=O (stereo unspecified) | inactive: -20%
CCOC(=O)c1ccc(NC(=O)Cn2nc(SC)c(S(=O)(=O)c3ccc(Cl)cc3)c2N)cc1 | inactive: -52.4%
CC(C)CC(=O)Nc1nnc(S(=O)(=O)N2CCCCCC2)s1 | inactive: -7.4%

SMILES | activity change, positive = activation
CCOc1cc(CC(=O)N[C@@H](CC(C)C)c2ccccc2N2CCCCC2)ccc1C(=O)O | inactive: -18.4%
Cc1ccc(C(=O)N(Cc2sccc2C)C2CCS(=O)(=O)C2)cc1 (stereo unspecified) | inactive: -17.4%
Cc1nc(C)c(-c2ccc(SCC(=O)Nc3ccc(Cl)c(Cl)c3)nn2)s1 | inactive: -31.8%
COc1ccc(OC)c(-n2nnc3c(sc4nc(C)c(Br)c(C)c43)c2=O)c1 | inactive: -5.44%
COc1ccccc1NC(=O)N1c2ccccc2Sc2ccccc21 | inactive: -27.6%
CC1=C(C(=O)Nc2ccccc2)C(c2cccnc2)n2nc(SCc3ccccc3F)nc2N1 (stereo unspecified) | inactive: -7.99%
O=c1c2sc3ccccc3c2n(Cc2ccccc2F)c(=O)n1Cc1ccccc1 | inactive: -9.63%
CCC(CC)C(=O)Nc1cc(-c2cccc(C)c2)nn1-c1ccccc1 | inactive: -3.3%
COc1ccc(Cl)cc1NC(=O)c1cc(C)nc2c1c(C)nn2-c1ccccc1 | inactive: -8.08%
COc1cccc(CNC(=O)C2CCN(C(=O)N3CCOc4ccc(Cl)cc43)CC2)c1OC | inactive: -25.1%
Cc1ccc(Cn2c(=O)n(Cc3ccco3)c(=O)c3sc4ccccc4c32)cc1 | inactive: -16.2%
O=c1c2cnn(-c3ccc(Cl)cc3)c2ncn1Cc1ccc(Cl)cc1Cl | inactive: -12%
Cc1nc2c(C(=O)NCc3ccccc3)cnn2c(C)c1Cc1ccc(F)cc1 | inactive: -11%
Cc1cccc(C(=O)Nc2cc3c(cc2N2CCCCC2)n(C)c(=O)c(=O)n3C)c1 | inactive: -3.64%
CC(=O)N1CCC2(CC1)OC(=O)C(C)=C2C(=O)Nc1cccc(Cl)c1C | inactive: -15.2%
CCCCC(=O)Nc1cc(C)c(O)c(-c2nc3ncccc3o2)c1 | inactive: -8.08%
O=C(CC1N=C2c3ccccc3N=C(SCc3ccccc3F)N2C1=O)NCCc1ccccc1 (stereo unspecified) | inactive: 8.19%
Cc1nc2c(C(=O)NCc3ccccc3Cl)cnn2c(C)c1Cc1c(F)cccc1Cl | inactive: -8.37%
CC(=O)N1CCCc2cc(S(=O)(=O)N3CCC(C(=O)NCCC(C)C)CC3)ccc21 | inactive: -19.3%
O=C(NC1CC(=O)N(c2ccc(F)cc2)C1)c1cc2ccccc2o1 (stereo unspecified) | inactive: -7.8%
CN1CCN(C(c2ccccc2)c2sc3nc(-c4ccco4)nn3c2O)CC1 (stereo unspecified) | inactive: 9.88%
COc1ccccc1NC(=O)n1ncc2c(C)cccc21 | inactive: -21.3%
CCOC(=O)c1ccc(NC(=O)C2Cc3ccccc3CN2S(=O)(=O)c2ccc(Cl)cc2)cc1 (stereo unspecified) | inactive: -34.3%
O=C(NCC(c1cccs1)S(=O)(=O)c1cccs1)c1ccccc1 (stereo unspecified) | inactive: -16.4%

SMILES | activity change, positive = activation
CC(NC(=O)Cn1ncc2c3ccccc3n(Cc3ccc(F)cc3)c2c1=O)c1ccccc1 (stereo unspecified) | inactive: -5.08%
COc1ccc(Cl)cc1NS(=O)(=O)c1cc(-c2cc(C)no2)ccc1C | inactive: -38.8%
Cc1cc(Br)ccc1NC(=O)CCS(=O)(=O)c1cccc2nonc12 | inactive: -24.3%
CC(=O)c1sc2c(c1C)c(=O)n(-c1ccc(Cl)cc1)c(=O)n2Cc1ccc(Cl)cc1 | inactive: -15.1%
Cc1cc(C)c(Cn2c(C)c(CNCCCc3ccccc3)c(C(=O)O)c2C)c(C)c1 | inactive: -11.4%
CCOC(=O)c1c(NC(=O)c2noc3c2CC(C(C)(C)C)CC3)sc2c1CCCC2 (stereo unspecified) | inactive: -4.13%
Cc1ccc(C)c(N2CCN(C(=O)CN3C(=O)COc4ccc(S(=O)(=O)N5CCCCCC5)cc43)CC2)c1 | inactive: -48.7%
COc1ccc(-c2cc(C(=O)Nc3c(C(=O)c4ccc(Cl)cc4)oc4ccccc34)no2)cc1 | inactive: -7.44%
CCOC(=O)c1cc2c(=O)n3ccccc3nc2n(CC2CCCO2)c1=NC(=O)c1cccc(C(F)(F)F)c1 (stereo unspecified) | inactive: 8.24%
CC(=O)N1CCC(N(Cc2ccco2)C(=O)Nc2cccc(C)c2)CC1 | inactive: -4.47%
Cc1cccc(NC(=O)c2cnn(-c3ccccc3)c2-n2cccc2)c1C | inactive: -34.9%
CNC(=O)c1ccccc1Nc1nc(Nc2ccc(N3CCOCC3)cc2OC)ncc1Cl | inactive: -34.1%
CCOC(=O)N1CCN(S(=O)(=O)N2CCCC(C(=O)NCc3cccc(OC)c3)C2)CC1 (stereo unspecified) | inactive: -15.3%
CC1=C(C(=O)Nc2cc3cn[nH]c3cc2F)C(c2ccc(C(F)(F)F)cc2)CC(=O)N1 (stereo unspecified) | inactive: -13.3%
CCC1CN(C(=O)N2CCC(C(=O)NCc3ccc(C)o3)CC2)c2cc(C)ccc2O1 (stereo unspecified) | inactive: -21.9%
CCS(=O)(=O)c1ncc(N(Cc2ccco2)Cc2sccc2C)c(C(=O)Nc2cc(C)ccc2C)n1 | inactive: -13.6%
Cn1c(C(=O)NCc2ccc(F)cc2)cc2c(=O)n(C)c3ccccc3c21 | inactive: -4.91%
CCCn1c(=O)c2sccc2n2c(CCCC(=O)N3CCN(c4ccccc4)CC3)nnc12 | inactive: -0.984%
COc1ccc(CCNC(=O)Cn2nnc(-c3ccc(C(F)(F)F)cc3)n2)cc1OC | inactive: -22.6%
COc1ccc(C(=O)NCCc2sc(-c3cccc(F)c3)nc2C)cc1 | inactive: -16.1%
Cc1ccccc1NS(=O)(=O)c1ccc2[nH]cc(C(=O)N3CCCC3)c(=O)c2c1 | inactive: -17.9%
Cc1nc2ccn(Cc3cccnc3)c(=O)c2cc1C(=O)Nc1ccc(OC(F)(F)F)cc1 | inactive: -16.2%
C[C@@H](N)C1CCC(C(=O)Nc2ccncc2)CC1 (stereo partly specified) | inactive: -4.63%
O=NN(CCCl)C(=O)NCCCl | inactive

SMILES | activity change, positive = activation
CC1CCc2nc(NC(=O)COc3ccc(C(C)(C)C)cc3)sc2C1 (stereo unspecified) | inactive: 11.4%
CCOC(=O)c1ncn2c1CN(C)C(=O)c1cc(F)ccc1-2 | inactive
Cc1cccc(CCn2c(=O)c3ccccc3n(Cc3cccc(F)c3)c2=O)c1 | inactive: 5.8%
COc1ccc(OC)c(C2CC(=O)c3c([nH]c(C(=O)OCC4CCCCC4)c3C)C2)c1 (stereo unspecified) | inactive: -26.5%
CC(=O)c1cccc(NC(=O)CCS(=O)(=O)c2cc(Br)cc3c2N(C(=O)C2CC2)CC3)c1 | inactive: -7.02%
CCCC(=O)N1CC(=O)Nc2ccc(Cl)cc2C1c1ccc(F)cc1 (stereo unspecified) | inactive: -6.53%
Cc1csc2nc(COC(=O)COc3ccccc3F)cc(=O)n12 | inactive: -6.71%
O=C(Cc1ccc(NC(=O)N2CCSc3ncccc32)cc1)NCc1ccccc1Cl | inactive: -20.1%
CCOc1ccc(S(=O)(=O)Nc2ccc3oc(C)c(C(=O)OCCOC)c3c2)cc1 | inactive: -39.3%
CCC(=O)Nc1nnc(S(=O)(=O)N(C)Cc2ccccc2)s1 | inactive: -4.47%
COc1cccc(NC(=O)Cn2c(=O)n(-c3ccc(CC(=O)NCC4CCCO4)cc3)c(=O)c3ccccc32)c1 (stereo unspecified) | inactive: -6.65%
CCOc1ccccc1NC(=O)c1cccc2c1C(=O)N(C1CCCCC1)C2 | inactive: -3.68%
Cc1cc(C)cc(NC(=O)NCCn2nnc3cc(S(=O)(=O)N(C)C)ccc32)c1 | inactive: -14.2%
CCOc1ccc(C(=O)OCc2cc(=O)n3nc(C4CCCCC4)sc3n2)cc1 | inactive: -7.08%
CSc1ncc(Cl)c(C(=O)N(Cc2ccccc2Cl)C2CCS(=O)(=O)C2)n1 (stereo unspecified) | inactive: -22.1%
COc1cccc(C(=O)NC(=O)Nc2ccc(-c3cc(C(F)(F)F)nn3-c3ccccc3)cc2)c1 | inactive: -29.1%
Cc1sc2ncn(CC(=O)Nc3cccc(C(F)(F)F)c3)c(=O)c2c1S(=O)(=O)N1CCC(C)CC1 | inactive: 5.74%
CCOC(=O)C1=C(CN2CCN(c3ccccc3)CC2)NC(=O)NC1c1ccc(C)cc1 (stereo unspecified) | inactive: -32.6%
COc1ccc(C2c3c(-c4ccccc4O)n[nH]c3C(=O)N2Cc2ccco2)cc1 (stereo unspecified) | inactive: -25.2%
O=C(Nc1ccccc1C(=O)OCc1cc(=O)n2nc(C3CC3)sc2n1)c1cccc(Cl)c1 | inactive: 0%
Cc1ccc(Cl)cc1NC(=O)Cn1c(=O)c(CNc2ccccc2)cc2cc3c(cc21)OCCO3 | inactive: -14.6%
CCCCn1c(-c2ccc(S(=O)(=O)N3CCOCC3)cc2)csc1=Nc1ccccc1 | inactive: -45.8%
COc1ccc(C(=O)Nc2cc(C(F)(F)F)ccc2N2CCN(c3ccccc3)CC2)cc1OC | inactive: -4.12%
Cc1cccc(Cn2c(CN3CCC(C(=O)NCCc4ccccc4)CC3)cc3ccccc32)c1 | inactive: -26.6%
